In PubChem BioAssay (NCI):
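A five-concentration, 48-hour dose response in 96-well plates underlies each endpoint, interpolated linearly between surrounding concentrations. Here, GI50 denotes the concentration required for 50% inhibition of growth. The concentration for full growth arrest is given as TGI.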

test system: NCI-H322M lung; assay: DTP human tumour cell line panel, 48 h

| Structure (SMILES) | GI50 | TGI |
| --- | --- | --- |
| Cn1nc(C(F)(F)F)cc1-c1cc(Cl)c(COc2ccc(Cl)cc2)c(-c2ccc(Cl)c(C(F)(F)F)c2)c1O | 2.88 µM | 10.9 µM |
| O=C1NC(=NC23CC4CC(CC(C4)C2)C3)N/C1=C\c1ccc2ncoc2c1 | 0.309 µM | 18.6 µM |
| O=C(Nc1ccc(Cl)c([N+](=O)[O-])c1)Nc1ccc(Cl)c([N+](=O)[O-])c1 | 11.7 µM | 24.2 µM |
